Measurements taken from PubChem BioAssay AID504333 (National Center for Advancing Translational Sciences (NCATS), 2011).
Out of some 360,000 compounds screened, about 16,000 (4.4%) were called active. Inconclusive results, whose numbers are uncertain, are shown with a selection of clear calls. The call rests on the fitted dose curve; in most records, active means well fitted inhibition curve with a large enough effect; inconclusive means small, poorly fitted or top-dose-only effect; inactive means no such curve, though single readings can be large or run the other way. Where the call is inconclusive, the potency comes from a doubtful curve fit.
Further: nearly all actives have a fitted effect of over 60% in size.
On the % scale 0 is the no-effect control and ±100 the full control effect; potency means the concentration at half of the fitted maximal effect; tags describe the fitted curve by direction and shape.

The compounds below were run against Bromodomain adjacent to zinc finger domain protein 2B (Homo sapiens) (UniProt Q9UIF8) (assay: qHTS Assay for Inhibitors of BAZ2B). Details: AlphaScreen BAZ2B-H3K14Ac peptide displacement; activity change, negative = inhibition: at 114 µM (top of the series) unless noted.
UniProt Q9UIF8, sequence (Q9UIF8 whole entry, looked up, the tested form may be a part): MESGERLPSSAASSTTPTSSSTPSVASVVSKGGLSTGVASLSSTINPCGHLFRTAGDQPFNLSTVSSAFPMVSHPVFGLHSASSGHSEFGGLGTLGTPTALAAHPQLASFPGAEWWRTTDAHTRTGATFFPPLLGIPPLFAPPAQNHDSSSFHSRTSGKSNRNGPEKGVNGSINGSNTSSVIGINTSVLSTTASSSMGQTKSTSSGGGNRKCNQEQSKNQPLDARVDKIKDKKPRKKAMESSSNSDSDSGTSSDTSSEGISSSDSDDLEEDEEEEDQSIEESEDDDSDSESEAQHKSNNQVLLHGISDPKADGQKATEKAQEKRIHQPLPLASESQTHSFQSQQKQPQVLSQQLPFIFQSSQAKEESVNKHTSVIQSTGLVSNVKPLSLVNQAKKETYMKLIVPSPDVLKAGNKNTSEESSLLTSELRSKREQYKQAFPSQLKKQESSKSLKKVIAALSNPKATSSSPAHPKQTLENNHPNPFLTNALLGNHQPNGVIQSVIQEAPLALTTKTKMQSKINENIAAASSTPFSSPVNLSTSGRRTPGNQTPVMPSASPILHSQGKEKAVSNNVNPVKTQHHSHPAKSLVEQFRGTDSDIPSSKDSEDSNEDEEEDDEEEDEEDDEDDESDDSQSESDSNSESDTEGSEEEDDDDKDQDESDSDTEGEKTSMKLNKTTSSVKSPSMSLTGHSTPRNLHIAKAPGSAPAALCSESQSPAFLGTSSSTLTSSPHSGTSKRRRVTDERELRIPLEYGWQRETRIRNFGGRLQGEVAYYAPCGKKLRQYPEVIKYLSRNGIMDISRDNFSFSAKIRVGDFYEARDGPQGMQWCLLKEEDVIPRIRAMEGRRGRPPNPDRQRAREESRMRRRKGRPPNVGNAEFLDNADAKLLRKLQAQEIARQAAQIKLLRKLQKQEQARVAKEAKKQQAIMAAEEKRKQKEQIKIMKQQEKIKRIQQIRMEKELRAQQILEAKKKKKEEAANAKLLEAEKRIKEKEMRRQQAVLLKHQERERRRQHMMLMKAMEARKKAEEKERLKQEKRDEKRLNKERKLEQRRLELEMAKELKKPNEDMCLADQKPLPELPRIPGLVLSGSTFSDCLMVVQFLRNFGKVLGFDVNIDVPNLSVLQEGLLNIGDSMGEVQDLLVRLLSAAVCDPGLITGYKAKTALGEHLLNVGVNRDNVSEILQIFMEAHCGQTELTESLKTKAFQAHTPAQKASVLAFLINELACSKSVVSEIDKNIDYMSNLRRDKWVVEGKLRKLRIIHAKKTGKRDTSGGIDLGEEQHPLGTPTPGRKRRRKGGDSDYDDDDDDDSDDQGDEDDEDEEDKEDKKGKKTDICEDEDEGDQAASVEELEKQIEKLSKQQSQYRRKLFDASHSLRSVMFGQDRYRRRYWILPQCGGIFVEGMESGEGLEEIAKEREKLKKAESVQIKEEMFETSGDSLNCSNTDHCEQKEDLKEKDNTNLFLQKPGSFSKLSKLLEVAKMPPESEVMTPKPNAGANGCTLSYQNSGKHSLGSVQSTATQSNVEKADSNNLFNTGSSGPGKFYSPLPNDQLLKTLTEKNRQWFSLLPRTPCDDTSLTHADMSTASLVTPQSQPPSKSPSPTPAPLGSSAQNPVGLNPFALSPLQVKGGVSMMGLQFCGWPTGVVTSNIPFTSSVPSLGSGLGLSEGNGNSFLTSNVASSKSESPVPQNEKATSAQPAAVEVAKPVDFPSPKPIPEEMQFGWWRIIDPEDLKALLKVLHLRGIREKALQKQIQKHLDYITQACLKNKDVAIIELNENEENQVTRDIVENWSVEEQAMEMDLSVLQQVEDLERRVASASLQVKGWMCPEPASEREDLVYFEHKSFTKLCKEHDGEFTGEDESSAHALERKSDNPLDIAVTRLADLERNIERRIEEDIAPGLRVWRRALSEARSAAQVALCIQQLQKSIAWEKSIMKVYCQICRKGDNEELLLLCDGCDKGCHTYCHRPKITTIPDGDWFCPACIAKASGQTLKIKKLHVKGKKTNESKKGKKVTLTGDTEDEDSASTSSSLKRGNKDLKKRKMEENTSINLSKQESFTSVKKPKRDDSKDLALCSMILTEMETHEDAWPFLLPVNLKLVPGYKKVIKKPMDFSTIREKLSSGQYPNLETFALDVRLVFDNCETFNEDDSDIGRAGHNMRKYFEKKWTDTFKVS
How it was run: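 Compounds, titrated to a top concentration of 110 uM, were incubated 30 min at room temperature with preformed BAZ2B/acetyl-K14 H3 peptide complex (50 nM each). Proximity signal was measured by AlphaScreen after 20 min with beads.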
`CCSc1ncc(Cl)c(C(=O)N(Cc2ccc(N(C)C)cc2)C2CCS(=O)(=O)C2)n1` (stereo not drawn) was tested, and the Potency was inconclusive: 35.5 µM [inhibitor, partial curve].
With `O=c1c2cc(N3CCOCC3)ccc2[nH]c(=S)n1Cc1ccco1` the Potency was inconclusive: 89.1 µM [inhibitor, single point].
In the case of `NNC(=S)NC1CC2CC1C1C=CCC21` (stereo not drawn), the Potency is reported as inconclusive: 20 µM [inhibitor, full curve].
In the case of `O=c1c(C(c2ccc(O)cc2)c2c(O)nc3n(c2=O)CCS3)c(O)nc2n1CCS2`, the Potency is reported as inconclusive: 89.1 µM [inhibitor, single point].
With `O=C(C1CCN(S(=O)(=O)c2cccc3nonc23)CC1)N1CCN(c2ccccc2F)CC1` the Potency was inconclusive: 79.4 µM [inhibitor, single point].
`Cc1ccc(-c2nnc(NCc3ccccc3)c3ccccc23)cc1` was tested, and the Potency was inconclusive: 79.4 µM [inhibitor, single point].
With `Cc1nn(-c2ccc(F)cc2)c(-n2cccc2)c1C(=O)NCCCN1CCN(c2cccc(Cl)c2)CC1` the Potency was inconclusive: 50.1 µM [inhibitor, partial curve].
With `CCOC(=O)c1sc2ccccc2c1S(=O)(=O)N1CCN(c2cccc(OC)c2)CC1` the Potency was inconclusive: 89.1 µM [inhibitor, single point].
In the case of `CCS(=O)(=O)c1nc(S(=O)(=O)c2ccc(Cl)cc2)c(N2CCC(O)CC2)s1`, the “activity change, negative = inhibition” value is reported as inactive: -4.77%.
With `O=C(NCc1cccnc1)C(=O)NCC(c1cccnc1)N1CCN(c2ccccc2F)CC1` (stereo not drawn) the Potency was inconclusive: 89.1 µM [inhibitor, single point].
In the case of `Cn1c(=O)n(C)c2cc([N+](=O)[O-])c(N3CCN(S(=O)(=O)c4ccccc4)CC3)cc21`, the Potency is reported as inconclusive: 44.7 µM [inhibitor, partial curve].
`O=C1C2C3C=CC(C3)C2C(=O)N1c1ncn[nH]1` (stereo not drawn) was tested, and the Potency was inconclusive: 89.1 µM [inhibitor, single point].
`CCn1c(=O)cc(SCC(=O)NCc2ccccc2OC)c2ccccc21` was tested, and the “activity change, negative = inhibition” value was inactive: -2.08% [at 57.1 µM].
With `O=C(N/N=C/c1ccco1)c1cc(-c2ccncc2)nc2ccccc12` the Potency was inconclusive: 50.1 µM [inhibitor, partial curve].
For `COc1ccc(C(=O)Nc2ccc(OCc3cc(=O)n4ccsc4n3)cc2)cc1OC`, the “activity change, negative = inhibition” value was inactive: 2.66%.
With `CCc1ccc(S(=O)(=O)Nc2cccc(-c3ccc(N4CCC(C)CC4)nn3)c2)s1` the “activity change, negative = inhibition” value was inactive: -38.5%.
With `Cc1cccc2sc(N(CCN(C)C)C(=O)c3cc(Cl)sc3Cl)nc12` the Potency was inconclusive: 44.7 µM [inhibitor, partial curve].
`CCOc1cccc(C2c3[nH]c4ccccc4c3CCN2C(=O)CCC2CCCC2)c1` (stereo not drawn) was tested, and the Potency was inconclusive: 79.4 µM [inhibitor, single point].
`c1coc(C2=Nc3cccc4cccc(c34)N2)c1` was tested, and the Potency was inconclusive: 50.1 µM [inhibitor, partial curve].
`Cc1ccc(OCCN2CCN(C)CC2)c([N+](=O)[O-])c1` was tested, and the Potency was active: 50.1 µM.
In the case of `O=C1COc2ccc(C(=O)COC(=O)CNS(=O)(=O)c3cccc(F)c3)cc2N1`, the Potency is reported as inconclusive: 100 µM [inhibitor, single point].
With `O=CNC1CCCc2c1[nH]c1ccc(Cl)cc21` (stereo not drawn) the Potency was inconclusive: 56.2 µM [inhibitor, partial curve].
For `O=C(c1ccc(C(=O)N2CCCc3ccccc32)s1)N1CCCc2ccccc21`, the Potency was inconclusive: 89.1 µM [inhibitor, single point].
With `COc1ccc(O[C@H]2C=C[C@@H](c3ccccc3)O[C@@H]2CO/N=C(\C)CCC(=O)OC[C@H]2O[C@H](c3ccccc3)C=C[C@@H]2Oc2ccc(OC)cc2)cc1` the Potency was inconclusive: 79.4 µM [inhibitor, single point].
For `COc1ccc(-c2nc(SCC(=O)c3ccc(OC)c(Br)c3)n[nH]2)cc1`, the Potency was inconclusive: 89.1 µM [inhibitor, single point].
`Cc1ccc(OCC(=O)N/N=C/C=C/c2ccco2)cc1C` was tested, and the Potency was inconclusive: 79.4 µM [inhibitor, single point].
With `CCC(Cc1ccccc1)NC(=O)CCNS(=O)(=O)c1cc(Br)cnc1N` (stereo not drawn) the “activity change, negative = inhibition” value was inactive: -5.06%.
In the case of `COc1ccc2[nH]c(=O)c(CNc3ccccc3OC)cc2c1`, the Potency is reported as inconclusive: 56.2 µM [inhibitor, partial curve].
For `NNc1nc2cc3c(cc2s1)OCCO3`, the Potency was inconclusive: 50.1 µM [inhibitor, partial curve].
For `CS(=O)(=O)c1cccc(-c2nnc(NC(=O)c3ccc(S(=O)(=O)N4CCCC4)cc3)o2)c1`, the Potency was inconclusive: 89.1 µM [inhibitor, single point].
With `CCc1nc(C)cn1S(=O)(=O)c1cc(C)c(OC)c(C)c1C` the Potency was inconclusive: 89.1 µM [inhibitor, single point].
In the case of `COc1ccc(-c2sc3cc(OC)c(OC)cc3c2C#CC(C)(C)O)cc1`, the Potency is reported as inconclusive: 89.1 µM [inhibitor, single point].
For `CC1CCN(c2oc(-c3ccc(COc4ccccc4)o3)nc2C#N)CC1`, the Potency was inconclusive: 5.01 µM [inhibitor, full curve].
For `Cc1ccc(-n2c(SCC(=O)N3CCOCC3)nnc2-c2ccncc2)cc1C`, the “activity change, negative = inhibition” value was inactive: -4.44%.
`COc1cccc(NC(=O)CSC2=C(C#N)C(c3ccco3)C3=C(CCCC3=O)N2)c1` (stereo not drawn) was tested, and the Potency was inconclusive: 89.1 µM [inhibitor, single point].
In the case of `O=[N+]([O-])c1cccc(NC(=S)Nc2nc(-c3ccccc3Cl)cs2)c1`, the Potency is reported as inconclusive: 1.26 µM [inhibitor, full curve].
`CC(C)(C)OC(=O)N1CCC(c2cc(=O)n3[nH]cc(C(=O)Nc4ccc(F)c(Cl)c4)c3n2)CC1` was tested, and the “activity change, negative = inhibition” value was inactive: -1.93%.
With `O=C(Nc1cccc([N+](=O)[O-])c1)NC1CCS(=O)(=O)C1` (stereo not drawn) the “activity change, negative = inhibition” value was inactive: 7.65%.
With `COc1cc(NC(=O)N(Cc2ccco2)C2CCN(C(C)=O)CC2)cc(OC)c1OC` the Potency was inconclusive: 89.1 µM [inhibitor, single point].
With `Cc1ccc(NC(=O)CCN2CCC(Cc3ccccc3)CC2)cc1` the “activity change, negative = inhibition” value was inactive: 5.83%.
For `CC(C)N1C(=O)CC(Nc2cccc3cccc(N)c23)C1=O` (stereo not drawn), the Potency was inconclusive: 79.4 µM [inhibitor, single point].
In the case of `COc1ccccc1CC1S/C(=N/N=C/c2ccco2)NC1=O` (stereo not drawn), the “activity change, negative = inhibition” value is reported as inactive: -15.4%.
With `COC(=O)c1ccc(N2CCN(C)CC2)c(NC(=O)c2ccc(Br)o2)c1` the Potency was inconclusive: 3.55 µM [inhibitor, single point].
For `COc1ccc(N2CCN(C(=O)C3CCN(S(=O)(=O)c4ccc(C)cc4)CC3)CC2)cc1`, the Potency was inconclusive: 50.1 µM [inhibitor, partial curve].
In the case of `O=C1NC(=O)/C(=C/c2ccc(-c3cccc([N+](=O)[O-])c3)o2)S1`, the Potency is reported as inconclusive: 79.4 µM [inhibitor, single point].
`Cc1c(C(=O)N2CCCC2)c(S(=O)(=O)Nc2cccc(Br)c2)c(C)n1C` was tested, and the Potency was inconclusive: 79.4 µM [inhibitor, single point].
In the case of `CCOC(=O)c1sc2c(c1C)c(=O)n(Cc1ccccc1)c(=O)n2CCN(C)C`, the Potency is reported as inconclusive: 79.4 µM [inhibitor, single point].
For `COC(=O)c1ccc(=O)c2nc3/c(=C/O)c(O)cc(=O)c3[nH]c12`, the Potency was active: 0.708 µM.
In the case of `CCN1CCN(C(=O)Cn2ncc3c4ccccc4n(Cc4ccccc4)c3c2=O)CC1`, the “activity change, negative = inhibition” value is reported as inactive: -12.9%.
`Oc1c(C(c2ccc(F)cc2)N2CCc3ccccc3C2)sc2ncnn12` (stereo not drawn) was tested, and the “activity change, negative = inhibition” value was inactive: 9.74%.
With `C#CCOCCOCCOCCNc1nc(N2CCN(C(=O)C([C@@H](C)CC)n3cc(C(N)Cc4ccc(O)cc4)nn3)CC2)nc(N2CCN(C(=O)[C@H](CCC(=O)O)n3cc(C(N)Cc4ccc(O)cc4)nn3)CC2)n1` (stereo partly drawn) the Potency was active: 56.2 µM.
`COc1ccc(N/C(C)=C/C(=O)c2ccccc2)cc1` was tested, and the Potency was inconclusive: 44.7 µM [inhibitor, partial curve].
For `COc1cc(C)c(NC(=O)C(=S)NCc2ccccc2)cc1C`, the Potency was inconclusive: 31.6 µM [inhibitor, partial curve].
For `Cc1ccc(C(=O)Nc2ccc(C(=O)N/N=C/c3ccncc3)cc2)cc1`, the Potency was inconclusive: 79.4 µM [inhibitor, single point].
In the case of `CCOc1ccccc1CNCCNCC(C)O` (stereo not drawn), the “activity change, negative = inhibition” value is reported as inactive: -17.9%.
With `Cc1ccc(C(c2ccccc2)c2c(C)[nH]c3ccccc23)s1` (stereo not drawn) the “activity change, negative = inhibition” value was inactive: 49.7%.
For `[O-][n+]1c2cc(C(F)(F)F)ccc2c2n1CCN=C2c1ccc(Cl)cc1`, the Potency was inconclusive: 89.1 µM [inhibitor, single point].
`COc1cc(Br)c(-c2sc(Nc3ccccc3)n[n+]2-c2ccc(F)cc2)cc1OC` was tested, and the Potency was inconclusive: 44.7 µM [inhibitor, partial curve].
In the case of `Cc1[nH]c2ccccc2c1CN1CCC(Cc2ccccc2)CC1`, the Potency is reported as active: 44.7 µM.
For `Cc1ccc(C(=O)c2cc3c(cc2N)OCCO3)cc1`, the Potency was active: 35.5 µM.
For `O=C(C1CCN(Cc2ccc(F)cc2)CC1)N(CCO)Cc1ccccc1`, the “activity change, negative = inhibition” value was inactive: -16.1%.
In the case of `Cc1cccc(CNC(=O)c2oc3c(c2C)-c2nn(Cc4cccc(Cl)c4)cc2CC3)c1`, the Potency is reported as inconclusive: 89.1 µM [inhibitor, single point].
`CCCCC(C(=O)O)C(C)CC(=O)Nc1nncs1` (stereo not drawn) was tested, and the “activity change, negative = inhibition” value was inactive: 0.108%.
With `COc1cc2c(cc1OC)C1(CCCCC1)CN(C)C2` the “activity change, negative = inhibition” value was inactive: -30.9%.
With `Cc1ccc(N/C=C2\CCCCC2=O)c(C)c1` the Potency was inconclusive: 89.1 µM [inhibitor, single point].
`CCOC(=O)c1c(-c2ccco2)csc1NC(=O)COC(=O)c1cnc(C)cn1` was tested, and the Potency was active: 50.1 µM.
With `COc1ccc(Cc2nc3ccccc3n2CC(=O)N/N=C/c2ccc(O)cc2)cc1OC` the “activity change, negative = inhibition” value was inactive: 2.23%.
For `COc1cc(OC)c(OC)cc1/C=N/NC(=O)CSc1ccccc1F`, the “activity change, negative = inhibition” value was inactive: -15.1%.
